Assay results published in PubChem BioAssay AID652104 (National Center for Advancing Translational Sciences (NCATS), 2013).
Where “and” joins values, the source holds several entries; their conditions need not be identical. Equal values may be shown once. In all, about 410,000 compounds went through this assay and about 7,200 (1.8%) were called active. The shares of active, inactive and inconclusive entries below differ from those in the screen. Calls come from the whole dose curve; as a rule, active = well fitted activation curve with a large enough effect; inconclusive = small, poorly fitted or top-dose-only effect, or another doubt; inactive = no such curve, though single readings can be large or run the other way. Potencies of inconclusive entries are doubtful fits and often do not repeat.

Experiment: qHTS of TDP-43 Inhibitors; note: nearly all actives have a fitted effect of over 50% in size; for growth rescue (activation): % of control where 0% means no effect
Conditions: TDP-43 expressing yeast growth rescue, BacTiter-Glo, 24 h; growth rescue (activation): at 46.1 µM (top of the series) unless noted
Outline: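 Cell-based yeast growth screen: TDP-43 expression induced in galactose, inoculum OD600=0.02 after raffinose pregrowth to mid-log. Read-out BacTiter-Glo luminescence at 24 hr, 30 deg C; inhibition of toxicity seen as signal increase.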
Potency is the fitted concentration of half-maximal effect; tags give direction and shape of the fitted curve.

SMILES	Potency	growth rescue (activation)
FC(F)(F)c1nc(Sc2ncccc2C(F)(F)F)n[nH]1	active: 12.6 µM	
COc1ccc(-c2noc(CSc3nnc(-c4ccccc4)n3C)n2)cc1	inconclusive: 12.6 µM [activator, single point] and inconclusive: 35.5 µM [activator, single point]	
Fc1ccc(C2=CC(c3ccc(Br)o3)n3ncnc3N2)cc1 (stereo not drawn)	active: 17.8 µM	
Cc1cn(C2OC(COC(=O)c3ccccc3)C(O)C2O)c(=O)[nH]c1=O (stereo not drawn)	inactive	
Cc1cc(/C=N/NC(=O)CC2(C)OCCO2)c(C)n1-c1ccc(Cl)c(Cl)c1	inconclusive: 20 µM [activator, single point]	
COc1cc(OC)c2c(-c3ccccc3)cc(C3CCCCC3)nc2c1	inconclusive: 11.2 µM [activator, partial curve]	
Fc1ccc(NC(=S)Nc2ccccc2OC(F)F)cc1Cl	inconclusive: 35.5 µM [activator, single point]	
CCOc1ccc(/C=C/c2nc3ccccc3n2S(=O)(=O)c2cccc(Cl)c2)cc1	inactive	
Nc1cc2c(cc1Cl)-c1ccc(Cl)cc1C2	active: 25.1 µM	
COc1cc(C(=O)NCC(c2ccccc2)N(C)C)ccc1OCc1c(C)noc1C (stereo not drawn)	inactive	
CC(=O)C(Sc1nc(NC(C)(C)C)nc(N(C)C)n1)C(C)=O	inconclusive: 17.8 µM [activator, single point]	
O=C(Nc1nnc(SCc2ccccc2)s1)C1=COCCO1		inconclusive: 53.9% [activator]
C[C@@H]1CCC(=O)N(C[C@@H](C)CSc2ccc(Br)cc2)CC1	inconclusive: 11.2 µM [activator, partial curve]	
C=CCn1c(=N)c(C(=O)NCCCOC)cc2c(=O)n3ccccc3nc21	inactive	
CCc1ccccc1NC(=O)c1cnc2scc(C)n2c1=O	inconclusive: 12.6 µM [activator, single point]	
COCCN=c1scc(-c2ccccc2)n1/N=C/c1c[nH]c2ccccc12	active: 11.2 µM	
COCCN(C(=S)Nc1ccccc1C)C(C)c1ccco1 (stereo not drawn)	inactive	
CCCCNC(=O)C1(C)CCCCN1Cc1ccccc1-c1ccccc1 (stereo not drawn)	inactive	
CCOC(=O)c1c(C)[nH]c(/C(C)=N/NC(=O)c2cccnc2)c1C	inconclusive: 28.2 µM [activator, partial curve]	
COc1ccc(NC(=O)CSCC(=O)N2CCCc3ccccc32)cc1		inconclusive: 32.9% [activator]
Cc1nc2ccc(NC(=O)Cc3ccc4c(c3)OCCO4)cc2s1	active: 3.55 µM	
COc1ccc(NC(=S)NCc2ccc(Cl)cc2)c(OC)c1	inconclusive: 11.2 µM [activator, partial curve, poor fit]	
COCc1nc(-c2ccc(-c3ccccc3)nc2OC)no1	inconclusive: 1.41 µM [activator, partial curve]	
COc1cccc(-c2nc(SCC(=O)NC3CCCC3)c(-c3ccc(F)cc3)[nH]2)c1	inactive	

SMILES	Potency	growth rescue (activation)
N/C(=N\OC(=O)c1ccc(Cl)c(Cl)c1)c1cccnc1	active: 6.31 µM	
COc1ccccc1N1CCN(c2nc3ccccn3c(=O)c2C=O)CC1	inconclusive: 11.2 µM [activator, partial curve]	
CCN(CC)CCN(Cc1cc2cc(C)ccc2[nH]c1=O)C(=O)Nc1ccccc1OC	inactive	
Nc1c(-c2ccccc2)cnn1-c1cccc([N+](=O)[O-])c1	active: 20 µM	
O=C(CSCc1cnn(-c2ccccc2)c1-n1cccc1)NCc1ccccc1Br	inconclusive: 17.8 µM [activator, partial curve]	
Cc1nc2ccc([N+](=O)[O-])cc2c(=O)n1Cc1cccc(F)c1	inconclusive: 14.1 µM [activator, single point]	
Cc1cc(C)cc(NC(=O)c2ncn(-c3ccccc3)n2)c1	inconclusive: 6.31 µM [activator, full curve, poor fit]	
CCCCc1nc2cc(C(=O)N3CCCC(OCCC)C3)ccc2o1 (stereo not drawn)	active: 14.1 µM	
Cc1c(Cl)cccc1NC(=O)C(C)N(c1ccccc1)S(C)(=O)=O (stereo not drawn)	inactive	
O=C1C2C3C=CC(C3)C2C(=O)N1c1ccc2ccccc2c1 (stereo not drawn)	inconclusive: 10 µM [activator, partial curve]	
CCc1ccc(NC(=O)N(Cc2cn(CC)c3ccccc23)C2CCCCC2)cc1	inconclusive: 22.4 µM [activator, partial curve, poor fit]	
Cn1ccnc1SCC(=O)Nc1ccc(Oc2ccccc2)cc1	inconclusive: 35.5 µM [activator, single point]	
O=[N+]([O-])c1ccc2c(c1)C(=NO)c1cc(F)ccc1-2	inconclusive: 12.6 µM [activator, partial curve]	
Cc1cc(C)c(C#N)c(SCC(=O)N(C)C2CCCCC2)n1	inconclusive: 35.5 µM [activator, single point]	
Cn1c2ccccc2c2cc(C(=O)O)ccc21	inconclusive: 3.16 µM [activator, single point]	
c1ccc(C2Nc3ccccc3C3OCCCC23)cc1 (stereo not drawn)	active: 11.2 µM	
Cc1ccc(NC(=O)CN(C)C(=O)CSc2ccc3c(c2)OCCO3)cc1	inconclusive: 35.5 µM [activator, single point]	
CC(=O)c1ccc(NC(=O)N2CCCC(C(=O)c3ccc4c(c3)OCO4)C2)cc1 (stereo not drawn)	inactive	
CC1(c2nnc(-c3ccc(Cl)cc3)o2)CC(c2ccncc2)=NO1 (stereo not drawn)	inconclusive: 2.51 µM [activator, full curve]	
O=C(Nc1ccc(N2CCOCC2)cc1)c1c(F)cccc1Cl	inconclusive: 11.2 µM [activator, partial curve, poor fit]	
CNC(=O)c1ccc(-c2ccc(OC)cc2)s1	inconclusive: 35.5 µM [activator, single point]	
COc1ccc(-c2nnn(Cc3ccccc3)n2)cc1OC	inconclusive: 6.31 µM [activator, single point]	
Cc1cc2n(n1)C(c1ccsc1)Nc1ccccc1-2 (stereo not drawn)	active: 8.91 µM	
CN(C)c1nc(Cl)cc(N2CCOCC2)n1	inconclusive: 14.1 µM [activator, partial curve]	
